# From ChEMBL document CHEMBL4888484, “Replenishing the malaria drug discovery pipeline: Screening and hit evaluation of the MMV Hit Generation Library 1 (HGL1) against asexual blood stage Plasmodium falciparum ,using a nano luciferase reporter read-out” (2022)
# “And” between values parts separate entries of the source, which are not always exact repeats. Identical values can stand only once. About 420 (8.8%) of roughly 4,800 compounds showed an effect of 50% or more. This is one part of the list.
# Test system: Plasmodium falciparum
# Test: Confirmatory screen in NF54 nanoGlo assay, in single point, at 2uM, 72h
# Type: functional, Erythrocyte
# Settings: timepoint 72 hour
smiles,measurement,setting,value
CCc1ncsc1C(=O)OCC1(C#N)CCOCC1,% Inhibition,,-8%
O=C(Nc1ccccc1)Nc1cnc(-n2ccnc2)nc1,% Inhibition,,40%
COc1ccsc1S(=O)(=O)N(CCN(C)C)C1CCCC1,% Inhibition,,-14%
O=C(N1CCC(O)CC1)C(F)(F)Cl,% Inhibition,,4%
CC(C)(CO)NCc1ccccc1Cl,% Inhibition,,-3%
COc1ccc(CCNC(=O)Cc2ccc3c(c2CO)OCO3)cc1OC,% Inhibition,,-7%
CN(Cc1cccc(OC(F)(F)F)c1)[C@H]1CCc2nn(C)c(=O)n2CC1,% Inhibition,,-1%
COCc1ncc(-c2noc(C3CC4CCC3C4)n2)c(N)n1 (centres undefined),% Inhibition,,-11%
COc1ccc(CN(C)[C@H]2CCc3nn(C)c(=O)n3CC2)c(Cl)c1OC,% Inhibition,,-11%
Cc1ccc(S(=O)(=O)Cc2nc(-c3ccc(C(=O)Nc4c(C)cccc4C)cc3)oc2C)cc1,% Inhibition,,3%
CCCCC(=O)N1CCc2[nH]nc(C(=O)NCCc3ccc(OC)cc3)c2C1,% Inhibition,,4%
Cc1cc(NC(=O)C(=O)Nc2cnn(CCC(C)C)c2C)n(C)n1,% Inhibition,,-7%
COc1ccc(CCNC(=O)CCC(=O)Nc2ccc(OCc3ccccc3)cc2)cc1OC,% Inhibition,,-11%
CC(C)c1ccc2ncnc(N[C@H]3CCc4[nH]cnc4C3)c2c1,% Inhibition,,97%
CCOC(=O)c1nccc(C#N)c1Cl,% Inhibition,,0%
Cc1cc(C(=O)N2CCCC[C@H]2c2nc(=O)[nH][nH]2)nn1C(F)F,% Inhibition,,-2%
O=C(Nc1ccccc1)C(=O)Nc1ccc2ncc(Cl)n2c1,% Inhibition,,-3%
O=C1NCCC[C@@H]1NS(=O)(=O)N1CCc2ccccc2C1,% Inhibition,,0%
CC(C)(NCc1ccccc1Cl)C(=O)O,% Inhibition,,4%
Cc1ccsc1CNCc1ccc2c(c1)OCO2,% Inhibition,,-17%
COc1cc(OC)c(OC)cc1CNC(C)C,% Inhibition,,-2%
Cc1nc(Nc2ccc(F)cc2)nc2c1ncn2-c1ccc(F)cc1,% Inhibition,,-18%
Cc1cc(NC(=O)C(=O)NC2CC(C)CC(C)(C)C2)n(-c2nc3c(c(=O)[nH]2)CCC3)n1 (centres undefined),% Inhibition,,90%
COC1CCCC1NC(=O)Nc1ncc(Br)cc1C (centres undefined),% Inhibition,,74%
COc1ccc(-n2cnc3cc(NCc4cccs4)ccc32)cc1,% Inhibition,,-10%
CC(C)CC1NC2(C(=O)N(Cc3ccc(F)cc3)c3ccccc32)C2C(=O)N(c3ccccc3)C(=O)C12 (centres undefined),% Inhibition,,6%
COc1ccc(OC)c(-c2csc(N3C(=O)CC4CS(=O)(=O)CC43)n2)c1 (centres undefined),% Inhibition,,7%
Cc1ccc2c(c1)c1c(n2S(=O)(=O)c2ccc(C(C)(C)C)cc2)CCCN(C)C1,% Inhibition,,76%
COc1ccc(CC(=O)N2CCC3(CC[C@@H]3O)CC2)cc1Cl,% Inhibition,,1%
COc1cc(-c2nnc3n2CC(C)(C)CN3)cc(OC)c1OC,% Inhibition,,1%
Cc1cc(C)n(C(=O)CNC(=O)c2ccccn2)n1,% Inhibition,,2%
CN1CCN(C(=O)[C@@H]2Cc3ccccc32)CC1,% Inhibition,,2%
Cc1nn(-c2nncc(-c3ccc(Cl)cc3)n2)c2c1[C@@H](c1cc(F)ccc1F)CC(=O)N2,% Inhibition,,13%
O=C1O[C@@H](CO)CN1c1cccc(F)c1,% Inhibition,,-4%
CCN(CC)C(=O)[C@@H]1CCCN1C(=O)CCCc1ccccn1,% Inhibition,,-18%
CCN1C(=O)Cc2cc(NS(=O)(=O)Cc3ccccc3)ccc21,% Inhibition,,-5%
CNC(=NCc1ccc(-c2ccc(OC)cc2)s1)NC,% Inhibition,,0%
CN1CCC(N2CCN(Cc3ccc4cc(O)ccc4c3)CC2)CC1,% Inhibition,,46%
CC(C)(C)OC(=O)NCC#Cc1cccc(F)c1,% Inhibition,,-23%
COc1nc(-c2cccc(C(=O)N3C[C@@H]4CC[C@H](C3)C(=O)N4)c2)ncc1F,% Inhibition,,67%
Cc1ccc(NC(=N)NC2=N[C@@H](CC(=O)Nc3cccc(C(F)(F)F)c3)C(=O)N2)cc1,% Inhibition,,-13%
CNS(=O)(=O)c1ccc(NCc2nnc3ccccn23)c(F)c1,% Inhibition,,1%
Cc1ccc(S(=O)(=O)N(CC(=O)N[C@@H](C)c2ccccc2)c2cccc(Br)c2)cc1,% Inhibition,,8%
C[C@](O)(CNC(=O)Cn1nc2ccccn2c1=O)c1cccs1,% Inhibition,,-1%
Cc1ccc(CC[C@H]2Nc3ccccc3C(c3ccccc3)(c3ccccc3)O2)o1,% Inhibition,,74%
C=CCCS(=O)(=O)NCc1ccncc1,% Inhibition,,-5%
COc1ccc(-c2oc(C)c(C)[n+]2[O-])cc1OC,% Inhibition,,-2%
OC[C@H](Nc1ncncc1Br)c1ccccc1F,% Inhibition,,0%
CC(C)c1nnc(CN2CC[C@H](OC(F)F)C2)o1,% Inhibition,,-2%
CCc1cc(=O)[nH]c(-n2nc(C3CC3)cc2NC(=O)C2CCCCC2)n1,% Inhibition,,88%
O=C1NCCC[C@@H]1NC(=O)[C@@H]1CN(C(=O)C2CCCCC2)CCN1C(=O)Nc1ccccc1,% Inhibition,,2%
Cc1cc(-c2ccc(S(=O)(=O)N3CCOCC3)s2)n[nH]1,% Inhibition,,4%
Cc1c(NS(=O)(=O)c2cccc3nsnc23)c(-n2cnnc2)nn1C,% Inhibition,,-8%
CC(Oc1ccc2c(c1)C(c1ccccc1)N(Cc1ccccc1F)CC2)C(=O)NC1CC1 (centres undefined),% Inhibition,,56%
O=C(Nc1ccccc1Cl)OCc1cncs1,% Inhibition,,0%
O=S(=O)(NCc1cccnc1)Oc1ccccc1O,% Inhibition,,-5%
O=C(COc1ccc(Cl)cc1)N[C@H](CO)CC1CCCC1,% Inhibition,,1%
CC(=O)N1CCc2sc(C(=O)N3CCN(c4ccccc4F)CC3)cc2C1,% Inhibition,,-7%
O=C(c1ccccc1)n1c(=O)n(C(=O)c2ccccc2)c2ccccc21,% Inhibition,,6%
CNC(=O)CCS(=O)(=O)CCCC(=O)Nc1c(C)cc(C)cc1C,% Inhibition,,-14%
CC1=NN(C(=O)Cc2ccc(Cl)c(O)c2)C(=O)C1,% Inhibition,,2%
Cc1ccc(S(=O)(=O)Nc2cccc(-c3csc(C)n3)c2)cc1,% Inhibition,,0%
CC(C)c1nnc(CNc2ccc(C#N)cc2)o1,% Inhibition,,4%
COc1ccc(CC(=N)Nc2cc3cc(OC)c(OC)cc3c(Cc3ccc(OC)c(OC)c3)n2)cc1OC,% Inhibition,,80%
O=S(=O)(CCCc1cn[nH]c1)[C@H]1CCc2c(F)cc(F)cc21,% Inhibition,,-5%
Cc1ccc(-n2c(=O)c3sccc3n(CC(=O)NCc3ccc(F)cc3F)c2=O)cc1C,% Inhibition,,-13%
O=C1CCC[C@H](O)N1Cc1ccc(F)cc1,% Inhibition,,4%
O=C1c2cc3ccccc3c(-c3ccccc3)c2C(=O)N1c1ccccc1,% Inhibition,,-18%
CC(C(=O)Nc1ncccn1)N1CCCC1Cn1cccn1 (centres undefined),% Inhibition,,-4%
CCN1CN(C(=O)Cc2c[nH]c3cc(C)ccc23)CC1=O,% Inhibition,,-10%
CC(=O)N[C@H]1[C@H](c2ccccc2)N(CCCc2ccccc2)CC[C@@]1(C)O,% Inhibition,,1%
COc1ccc(N2CCN(C(=O)CCn3nc(-c4cccc(Cl)c4)ccc3=O)CC2)cc1,% Inhibition,,-21%
O=C1c2cc3ccccc3n2C[C@](C(=O)NC2CCCCCCC2)(c2ccccc2)N1Cc1cccc(Cl)c1,% Inhibition,,-9%
COc1ccc2c(c1)CN(C(=O)[C@H]1OCCO[C@H]1C)CCO2,% Inhibition,,-1%
Nc1nccnc1C(=O)Nc1c(-c2ccccc2)ncn1C1CC1,% Inhibition,,-4%
Cc1ccc(C2=NC3(CCCC3)NC2=O)cc1,% Inhibition,,3%
Cc1cccc(CNC(=O)c2ccc3c(c2)N(C)[C@@H]2CCCCCN2C3=O)c1,% Inhibition,,-4%
C[C@@H](C1CC1)N(C1CC1)S(=O)(=O)c1cccc2c1N=S=N2,% Inhibition,,6%
CC(=O)N1CCn2c(nnc2[C@@H]2CCCN2S(=O)(=O)c2cc(F)ccc2F)C1,% Inhibition,,-6%
COc1cccc(-c2ccc(=O)n(CCC(=O)N3CCN(Cc4ccc5c(c4)OCO5)CC3)n2)c1,% Inhibition,,1%
O=C(c1cscn1)N1CC[C@H](Oc2cccc(Cl)c2)C1,% Inhibition,,48%
Cc1ccc(CNC(=O)c2nc(-c3ccncc3)cs2)o1,% Inhibition,,7%
O=C(Cn1ccnc1)N1CCCCCC1CC(O)c1ccccc1 (centres undefined),% Inhibition,,0%
Cc1nnc(C(C)NC(Cc2ccccc2)c2sccc2C)s1 (centres undefined),% Inhibition,,-13%
CCCc1noc([C@H]2CC(=O)N(c3ccccc3C)C2)n1,% Inhibition,,-1%
Nc1cccnc1N1CCc2ccccc21,% Inhibition,,-5%
CCc1ccc(NC(=O)[C@H](C)N2CCC(NS(=O)(=O)c3cccs3)CC2)cc1,% Inhibition,,70%
Cc1cnccc1NCCNCc1cccc(O)c1Cl,% Inhibition,,88%
COc1c(Cl)cc(Cl)cc1C#N,% Inhibition,,-16%
CN(Cc1cccnc1)c1ccc(S(=O)(=O)C(F)F)cc1,% Inhibition,,-5%
CC[C@@H](C(=O)NCc1ccc(OC(C)C)cc1)n1ccc2cc(S(=O)(=O)N3CCCCC3)ccc21,% Inhibition,,6%
C[C@@]12CO[C@@H](COc3ccccc3)O[C@@H]1CC[C@]1(C)C2CC[C@@H](O)[C@H]1CC(=O)N1CCC[C@H]1CO (some centres undefined),% Inhibition,,-4%
CCO[C@@]1(c2ccccc2)NC(=O)c2cc3c(cc21)OCCO3,% Inhibition,,-11%
Cc1cc(S(=O)(=O)NC[C@H]2CCCCN2)sc1C,% Inhibition,,-9%
O=c1[nH]nc2c(N3CC[C@H](NCc4ccc(F)cc4)C3)nccn12,% Inhibition,,-7%
Cc1n[nH]cc1CNC1CC2CCC1C2 (centres undefined),% Inhibition,,-8%
O=C(/N=C(/c1ccccc1)N1CCCCC1)C(F)(F)C(F)(F)C(F)(F)C(F)(F)C(F)(F)C(F)(F)F,% Inhibition,2 µM,0% and -8%
Oc1nccc(C(F)(F)C(F)(F)F)n1,% Inhibition,,-6%
COCCNc1nc(-c2ccccc2OC)c2c(N)n(-c3ccc(F)cc3)nc2n1,% Inhibition,,-6%
COc1ccccc1C1c2[nH]c3ccccc3c2C[C@H]2C(=O)N(CC(O)c3ccccc3)CC(=O)N12 (some centres undefined),% Inhibition,,33%
Cc1nn(Cc2cccc(C(F)(F)F)c2)c(=O)n1-c1ccc(OCc2ccccc2)cc1,% Inhibition,,-13%
CC1CC(=O)N(CC(=O)N2CCCCCC2)C(=O)C1,% Inhibition,,-7%
Cc1ccc(N2C(=O)C[C@]3(CC3(c3ccccc3)c3ccccc3)C2=O)cc1,% Inhibition,,66%
Cc1nccc(O[C@H]2CCCN(C(=O)CN3CCN(c4ccccc4)C3=O)C2)n1,% Inhibition,,-4%
